Reference: a collection of fitness landscapes (doi:10.1126/science.1257360)
The other results are listed elsewhere or left out.

B1: PhoQ; a variant is named by its letters at X, in order, P23837 (parent)
chain: MKKLLRLFFPLSLRVRFLLATAAVVLVLSLAYGMVALIGYSVSFDKTTFRLLRGESNLFYTLAKWENNKLHVELPENIDKQSPTMTLIYDENGQLLWAQRDVPWLMKMIQPDWLKSNGFHEIEADVNDTSLLLSGDHSIQQQLQEVREDDDDAEMTHSVAVNVYPATSRMPKLTIVVVDTIPVELKSSYMVWSWFIYVLSANLLLVIPLLWVAAWWSLRPIEALAKEVRELEEHNRELLNPATTRELTSLVRNLNRLLKSERERYDKYRTTLTDLTHSLKTPLXXLQXXLRSLRSEKMSVSDAEPVMLEQISRISQQIGYYLHRASMRGGTLLSRELHPVAPLLDNLTSALNKVYQRKGVNISLDISPEISFVGEQNDFVEVMGNVLDNACKYCLEFVEISARQTDEHLYIVVEDDGPGIPLSKREVIFDRGQRVDTLRPGQGVGLAVAREITEQYEGKIVAGESMLGGARMEVIFGRQHSAPKDE

Variants of: B1
Test: enrichment ratio after two sorts for PhoP signalling (ratio (wild type AVST 3.29)); higher = more functional
Conditions: with PhoP (E. coli)

Row | Variant | enrichment ratio
1 | IRSN | ≤ 0.25
2 | NGER | ≤ 0.25
3 | ATTW | 7.3
4 | SRGA | ≤ 0.25
5 | EILK | ≤ 0.25
6 | QFKT | ≤ 0.25
7 | LDPL | ≤ 0.25
8 | AKIT | 2.69
9 | HMWF | ≤ 0.25
10 | DPPV | ≤ 0.25
11 | FYIQ | ≤ 0.25
12 | ADNF | ≤ 0.25
13 | TYMV | 1.21
14 | HHGK | ≤ 0.25
15 | YFPI | 0.265
16 | RPIE | ≤ 0.25
17 | DNCA | ≤ 0.25
18 | FGKE | ≤ 0.25
19 | YCML | 12.7
20 | SRAM | ≤ 0.25
21 | GSDR | ≤ 0.25
22 | LALL | 7.29
23 | AELI | 30.6
24 | AFKV | ≤ 0.25
25 | FFAW | ≤ 0.25

Row | Variant | enrichment ratio
26 | SDYP | ≤ 0.25
27 | ILYH | ≤ 0.25
28 | HHYG | ≤ 0.25
29 | SEKA | ≤ 0.25
30 | PCPN | ≤ 0.25
31 | RIKI | ≤ 0.25
32 | WGPI | ≤ 0.25
33 | LACL | ≤ 0.25
34 | TPME | ≤ 0.25
35 | KMTK | ≤ 0.25
36 | YKCK | ≤ 0.25
37 | QSCP | ≤ 0.25
38 | SVFF | ≤ 0.25
39 | PGWV | ≤ 0.25
40 | CLLA | ≤ 0.25
41 | IDWT | ≤ 0.25
42 | RTPV | ≤ 0.25
43 | FQEM | ≤ 0.25
44 | RTWD | ≤ 0.25
45 | MLQF | ≤ 0.25
46 | FIFH | ≤ 0.25
47 | FDAK | ≤ 0.25
48 | HKAG | ≤ 0.25
49 | NKQV | ≤ 0.25
50 | YCHY | ≤ 0.25

Row | Variant | enrichment ratio
51 | MDWH | ≤ 0.25
52 | QICP | ≤ 0.25
53 | WTYY | ≤ 0.25
54 | FHKP | ≤ 0.25
55 | YPVT | ≤ 0.25
56 | GDFQ | ≤ 0.25
57 | DTVP | ≤ 0.25
58 | EIRD | ≤ 0.25
59 | LAVP | ≤ 0.25
60 | FDSH | ≤ 0.25
61 | KGHW | ≤ 0.25
62 | SMCK | 9.85
63 | MSQW | ≤ 0.25
64 | DTMD | ≤ 0.25
65 | WHII | ≤ 0.25
66 | IDDI | ≤ 0.25
67 | VKKY | ≤ 0.25
68 | WEES | ≤ 0.25
69 | SQGE | ≤ 0.25
70 | WEKC | ≤ 0.25
71 | KKIL | ≤ 0.25
72 | AIFK | ≤ 0.25
73 | HLRR | ≤ 0.25
74 | RCDF | ≤ 0.25
75 | RHWP | ≤ 0.25

Row | Variant | enrichment ratio
76 | QVTV | ≤ 0.25
77 | LINR | ≤ 0.25
78 | LIQV | ≤ 0.25
79 | YPED | ≤ 0.25
80 | SVPG | ≤ 0.25
81 | RAFL | ≤ 0.25
82 | HVKN | ≤ 0.25
83 | PACG | ≤ 0.25
84 | RPVE | ≤ 0.25
85 | FDYP | ≤ 0.25
86 | CHDR | ≤ 0.25
87 | VCCS | ≤ 0.25
88 | PVVA | ≤ 0.25
89 | MNKA | ≤ 0.25
90 | FIES | ≤ 0.25
91 | WAPP | ≤ 0.25
92 | FEEV | ≤ 0.25
93 | GWAV | ≤ 0.25
94 | DWRM | ≤ 0.25
95 | HHAH | ≤ 0.25
96 | DASL | ≤ 0.25
97 | LAMT | ≤ 0.25
98 | KRMW | ≤ 0.25
99 | ARKM | ≤ 0.25
100 | VSSR | ≤ 0.25

Row | Variant | enrichment ratio
101 | ESQH | ≤ 0.25
102 | DTNQ | ≤ 0.25
103 | VLLN | ≤ 0.25
104 | HSII | 7.5
105 | VFES | ≤ 0.25
106 | PYVC | ≤ 0.25
107 | HNFV | ≤ 0.25
108 | YAMV | 1.25
109 | MQIQ | ≤ 0.25
110 | WFMY | ≤ 0.25
111 | GSHW | ≤ 0.25
112 | SWTA | ≤ 0.25
113 | DHQL | ≤ 0.25
114 | LSCT | ≤ 0.25
115 | YWVH | ≤ 0.25
116 | IKMN | ≤ 0.25
117 | GIND | ≤ 0.25
118 | TYPN | ≤ 0.25
119 | FDWL | ≤ 0.25
120 | NMQI | ≤ 0.25
121 | TQPD | ≤ 0.25
122 | RQES | ≤ 0.25
123 | DSMS | ≤ 0.25
124 | HYEG | ≤ 0.25
125 | IPMI | ≤ 0.25

Row | Variant | enrichment ratio
126 | IYNA | ≤ 0.25
127 | ADQV | 0.355
128 | IENH | ≤ 0.25
129 | NNYK | ≤ 0.25
130 | RNRY | ≤ 0.25
131 | FRWD | ≤ 0.25
132 | GWSL | ≤ 0.25
133 | PWKG | ≤ 0.25
134 | ARLD | ≤ 0.25
135 | PDVL | ≤ 0.25
136 | NNGH | ≤ 0.25
137 | IFCI | ≤ 0.25
138 | NEAH | ≤ 0.25
139 | EAFC | ≤ 0.25
140 | CFYG | ≤ 0.25
141 | KTLK | ≤ 0.25
142 | ACSE | ≤ 0.25
143 | GMQF | ≤ 0.25
144 | SSHH | ≤ 0.25
145 | WEGT | ≤ 0.25
146 | PHSY | ≤ 0.25
147 | THQA | ≤ 0.25
148 | NDKF | ≤ 0.25
149 | FEWG | ≤ 0.25
150 | IYIG | ≤ 0.25

Row | Variant | enrichment ratio
151 | EIRA | ≤ 0.25
152 | WFIE | ≤ 0.25
153 | YFKG | ≤ 0.25
154 | FMIG | ≤ 0.25
155 | TTFR | ≤ 0.25
156 | GFWF | ≤ 0.25
157 | VASC | ≤ 0.25
158 | FVRL | ≤ 0.25
159 | VMLL | ≤ 0.25
160 | TMRK | ≤ 0.25
161 | WPEV | ≤ 0.25
162 | RLAT | ≤ 0.25
163 | HHIP | ≤ 0.25
164 | LCQL | ≤ 0.25
165 | MGTV | 7.44
166 | SHVC | ≤ 0.25
167 | GVPF | ≤ 0.25
168 | HDPW | ≤ 0.25
169 | AKFT | ≤ 0.25
170 | DMYN | ≤ 0.25
171 | FWWI | ≤ 0.25
172 | QKLH | ≤ 0.25
173 | DIES | ≤ 0.25
174 | WRTI | ≤ 0.25
175 | GRIK | ≤ 0.25

Row | Variant | enrichment ratio
176 | YCWV | ≤ 0.25
177 | LDEG | ≤ 0.25
178 | VGQR | ≤ 0.25
179 | LVFK | ≤ 0.25
180 | QGPM | ≤ 0.25
181 | MLYG | ≤ 0.25
182 | GEPA | ≤ 0.25
183 | YAEG | ≤ 0.25
184 | RTEA | ≤ 0.25
185 | FRSW | ≤ 0.25
186 | NQDS | ≤ 0.25
187 | AGLE | 3.91
188 | QHVL | ≤ 0.25
189 | PGNI | ≤ 0.25
190 | FQPM | ≤ 0.25
191 | AVLV | 5.05
192 | TNFA | ≤ 0.25
193 | QTAM | ≤ 0.25
194 | RHAI | ≤ 0.25
195 | KTND | ≤ 0.25
